This is one part of the list. The full chains were built here from the parent and the listed change. Inactive controls read about 0.05.
B1: TEV protease; numbered along this chain (parent)
chain: MGESLFKGPRDYNPISSSICHLTNESDGHTTSLYGIGFGPFIITNKHLFRRNNGTLVVQSLHGVFKVKDTTTLQQHLVDGRDMIIIRMPKDFPPFPQKLKFREPQREERICLVTTNFQTKSMSSMVSDTSCTFPSGDGIFWKHWIQTKDGQCGSPLVSTRDGFIVGIHSASNFTNTNNYFTSVPKNFMELLTNQEAQQWVSGWRLNADSVLWGGHKVFMVKPEEPFQPVKEATQL

Variants of: B1
Assay: raw area under fraction-flipped curve 0-4 h after induction (AUC4h, not background-subtracted), DNA-recorder readout of cleavage of the substrate (dimensionless); higher = more cleavage of the substrate by the protease variant
Settings: temperature: 34 °C; time window: 0-4 h after rhamnose induction
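Also: Bxb1 expression induced with 0.2% (w/v) L-rhamnose at OD600 near 0.5, cultures sampled hourly, flipped fraction per protease–substrate barcode pair counted by paired-end Illumina sequencing.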

Row | Variant | area with substrate EHLYFQS | area with substrate EKLYFQS | area with substrate EQLYFQS | area with substrate ESLYFQS | area with substrate EPLYFQS | area with substrate ERLYFQS | area with substrate ELLYFQS | area with substrate EVLYFQS | area with substrate EILYFQS | area with substrate EMLYFQS
1 | C131I | 0.123 | 0.15 | 0.118 | 0.0997 |  |  |  |  |  | 
2 | G138F | 0.11 | 0.0618 |  | 0.141 | 0.127 | 0.102 |  |  |  | 
3 | S158E | 0.0962 |  |  |  |  | 0.104 | 0.0766 | 0.0844 |  | 
4 | A170I | 0.0383 |  |  |  |  |  |  |  | 0.0576 | 
5 | G214W | 0.0696 |  | 0.0664 | 0.0284 | 0.102 |  | 0.0763 | 0.1 | 0.0681 | 
6 | P222L | 0.0729 |  |  |  | 0.134 |  | 0.0701 | 0.0708 |  | 
7 | T233W | 0.0642 | 0.122 | 0.103 | 0.124 |  |  |  | 0.0968 | 0.072 | 
8 | E3V |  |  |  |  |  | 0.171 |  |  | 0.0676 | 
9 | L61T |  |  |  | 0.0772 |  |  |  | 0.0988 | 0.124 | 0.12
10 | L99K |  | 0.0761 | 0.0934 |  |  | 0.0786 |  |  | 0.0537 | 0.0886
11 | M125W |  | 0.0643 |  |  |  | 0.111 |  |  | 0.106 | 
12 | C131H |  |  |  |  |  | 0.0579 | 0.154 |  | 0.157 | 
13 | G138M |  |  | 0.114 | 0.0811 |  |  | 0.0079 |  | 0.0835 | 0.0634
14 | F163S |  |  |  |  |  |  |  |  | 0.111 | 
15 | V165I |  | 0.103 |  | 0.102 | 0.139 |  |  | 0.152 | 0.0834 | 
16 | G166K |  |  |  |  | 0.0592 |  | 0.0544 | 0.0555 | 0.096 | 
17 | A170R |  |  |  | 0.0635 |  |  | 0.0598 |  | 0.0437 | 0.0533
18 | T174F |  |  |  | 0.0982 |  |  |  |  | 0.116 | 
19 | N178Y |  |  | 0.207 |  | 0.176 |  |  | 0.157 | 0.161 | 
20 | F180H |  | 0.114 |  | 0.107 |  | 0.123 |  |  | 0.0772 | 

Row | Variant | area with substrate EHLYFQS | area with substrate EKLYFQS | area with substrate EQLYFQS | area with substrate ESLYFQS | area with substrate EPLYFQS | area with substrate ERLYFQS | area with substrate ELLYFQS | area with substrate EVLYFQS | area with substrate EILYFQS | area with substrate EMLYFQS
21 | N186H |  |  |  |  |  |  |  |  | 0.118 | 
22 | E195T |  | 0.0946 | 0.109 |  | 0.128 |  |  |  | 0.117 | 0.098
23 | S201Q |  | 0.125 |  |  |  | 0.111 |  |  | 0.106 | 
24 | V210E |  |  | 0.0568 |  |  |  | 0.068 |  | 0.0601 | 
25 | L211D |  |  |  |  |  |  |  |  | 0.13 | 
26 | V58S |  | 0.0731 |  | 0.0973 |  |  | 0.0772 | 0.0049 |  | 
27 | D79E |  | 0.114 |  | 0.101 |  |  | 0.0904 | 0.0864 |  | 0.104
28 | Q97E |  | 0.111 | 0.136 | 0.124 |  | 0.0745 |  | 0.123 |  | 
29 | Q97N |  | 0.11 |  |  |  |  |  | 0.0919 |  | 
30 | L99H |  | 0.0937 |  |  |  |  |  |  |  | 
31 | N116T |  | 0.11 |  |  |  |  |  | 0.103 |  | 
32 | A170F |  | 0.0563 |  |  |  |  |  |  |  | 
33 | N172A |  | 0.0268 |  |  | 0.0811 | 0.0857 |  |  |  | 
34 | N178S |  | 0.0921 | 0.114 | 0.123 | 0.113 |  |  | 0.132 |  | 
35 | Y179D |  | 0.0486 | 0.0612 | 0.0612 |  |  |  | 0.155 |  | 
36 | K90M |  |  | 0.115 |  |  |  | 0.0998 |  |  | 
37 | C131E |  |  |  | 0.108 |  |  | 0.08 |  |  | 
38 | C131W |  |  |  |  |  | 0.0996 | 0.143 |  |  | 
39 | S158L |  |  |  |  |  | 0.0549 | 0.0364 |  |  | 0.046
40 | N206P |  |  |  | 0.105 |  |  | 0.106 |  |  | 

Row | Variant | area with substrate EHLYFQS | area with substrate EKLYFQS | area with substrate EQLYFQS | area with substrate ESLYFQS | area with substrate EPLYFQS | area with substrate ERLYFQS | area with substrate ELLYFQS | area with substrate EVLYFQS | area with substrate EILYFQS | area with substrate EMLYFQS
41 | G8L |  |  |  | 0.0979 | 0.106 | 0.114 |  |  |  | 0.123
42 | D137T |  |  | 0.0896 | 0.0852 |  |  |  | 0.131 |  | 0.0866
43 | Q74P |  |  | 0.11 |  | 0.121 | 0.1 |  |  |  | 
44 | Q97R |  |  |  |  | 0.14 |  |  |  |  | 
45 | R102N |  |  |  |  | 0.0419 |  |  |  |  | 
46 | K7S |  |  | 0.11 |  |  |  |  | 0.105 |  | 
47 | C131F |  |  | 0.234 |  |  |  |  | 0.147 |  | 
48 | G214F |  |  | 0.089 |  |  |  |  | 0.0915 |  | 
49 | E223D |  |  | 0.121 |  |  | 0.111 |  | 0.124 |  | 
50 | K230A |  |  | 0.0787 | 0.0617 |  |  |  |  |  | 
51 | C131Q |  |  |  |  |  | 0.112 |  |  |  | 
52 | H143N |  |  |  | 0.0947 |  | 0.0991 |  | 0.0887 |  | 
53 | F163N |  |  |  | 0.088 |  | 0.0722 |  | 0.0656 |  | 
54 | M1I |  |  |  | 0.0718 |  |  |  |  |  | 
55 | T119W |  |  |  | 0.12 |  |  |  |  |  | 
56 | G138A |  |  |  | 0.1 |  |  |  |  |  | 
57 | N206L |  |  |  | 0.117 |  |  |  |  |  | 
58 | F38E |  |  |  |  |  |  |  | 0.0464 |  | 

Same assay, conditions: temperature: 34 °C; time window: 0-4 h after rhamnose induction

Row | Variant | area with substrate EYLYFQS | area with substrate ETLYFQS | area with substrate EWLYFQS
59 | L61T | 0.11 |  | 
60 | G138M |  | 0.0791 | 
61 | V165I |  | 0.104 | 
62 | A170R | 0.0553 |  | 0.037
63 | N178Y |  | 0.172 | 
64 | E195T | 0.102 |  | 0.0901
65 | S201Q | 0.0968 | 0.109 | 0.0799
66 | Q97N |  |  | 0.085
67 | N116T |  |  | 0.11
68 | N172A | 0.0521 |  | 0.0686
69 | N178S |  | 0.117 | 
70 | R102N | 0.0812 |  | 
71 | K230A | 0.0838 |  | 0.109
72 | C131Q |  |  | 0.0838
73 | F163N |  | 0.11 | 0.0825
74 | T119W |  | 0.159 | 0.109
75 | A170Q |  | 0.0515 | 
76 | H215S |  | 0.0596 | 
77 | G138T |  |  | 0.0928
78 | G2S | 0.127 |  | 
